We go through 73 sequences from article PMC10726135.

Some of the results follow. At the low end of the ranking the order means little. Measured with an extract: partners may take part in the binding.

This assay concerns the target T1, HNF4alpha2 (COS-7 nuclear extract) (UniProt P41235).
T1 sequence: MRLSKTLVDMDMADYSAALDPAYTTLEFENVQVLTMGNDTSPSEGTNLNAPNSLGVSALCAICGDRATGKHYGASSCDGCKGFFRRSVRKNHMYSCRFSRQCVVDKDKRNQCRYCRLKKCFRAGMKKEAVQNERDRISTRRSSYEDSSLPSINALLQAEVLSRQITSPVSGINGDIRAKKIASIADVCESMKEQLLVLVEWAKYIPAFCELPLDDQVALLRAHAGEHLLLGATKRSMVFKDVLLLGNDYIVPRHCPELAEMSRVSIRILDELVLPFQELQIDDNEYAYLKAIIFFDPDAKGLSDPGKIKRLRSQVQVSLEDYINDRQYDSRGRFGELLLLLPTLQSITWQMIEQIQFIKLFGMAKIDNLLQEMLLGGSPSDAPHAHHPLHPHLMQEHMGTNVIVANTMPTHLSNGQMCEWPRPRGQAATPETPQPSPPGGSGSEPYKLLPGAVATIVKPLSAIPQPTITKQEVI
Description: protein-binding microarray. Conditions: COS-7 nuclear extract on double-stranded Agilent 4x180k PBM; binding buffer, salt, pH and temperature not given; high values mean tight binding; double strand, one strand shown; sequences stand for … in …GCCTAGGGAGATTAGAGTATCGGTCGA
For GTATGGTAAGGTCGACCTTTAAACGTTTGC, the binding signal (log2 normalized intensity) was determined as 4.9.

On to TTCATTGCACTTTGCCCTCTCTTCAGCACC, for which the binding signal (log2 normalized intensity) turned out to be 5.49.

Consider AAAGTTCAGTTGCAAAGAACAGAATCCAGT, for which the binding signal (log2 normalized intensity) is -1.05.

Consider CAGCAGCGGATCCAACCTGTTCTTTTGAGC, for which the binding signal (log2 normalized intensity) was -0.214.

Turning to TATTAGGCAAAAGAGATAGCGAGAAGGCAG, the binding signal (log2 normalized intensity) is -0.84.

As to TTTGTTCACCCACCAGAGGGAACGCCCGAC, the binding signal (log2 normalized intensity) was -1.16.

As for ATTGGGTCCACACATTCCTAGACCTTTGAC, the binding signal (log2 normalized intensity) is 3.26.

In the case of CCAGTGGAGTAGGCTTTAGATAAGGTATGT, the binding signal (log2 normalized intensity) came out at 1.29.

As for CGGTCAAGTCAGAGGCCCAGCAAGGAGAAA, the binding signal (log2 normalized intensity) was -1.05.

Consider AGATACAGGTCAGACCCTGGAATTCCAGAA, for which the binding signal (log2 normalized intensity) was -0.969.

Turning to CATGGCAGATGTCTGTGTTCACATAGGGGC, the binding signal (log2 normalized intensity) was 1.29.

Regarding AAAGAGCTTTTGGGCAGAGACTATGTGGTT, the binding signal (log2 normalized intensity) stood at 1.58.

On to AGAGCAGTTCAGCTCTCTTTGCTCTCCTCC, for which the binding signal (log2 normalized intensity) was -1.11.

As to AAGTGTGGTCAAGGGTCAGTTTCTGAGAGT, the binding signal (log2 normalized intensity) was 3.65.

Consider GAAGTGTTTGTCAAGCTCAATGCAACCAGT, for which the binding signal (log2 normalized intensity) was -1.07.

As for ATCCCAATTCACTGACACAAATTATGTCAG, the binding signal (log2 normalized intensity) is -1.07.

With TGTACCTCTGGTGATTACCAGTTATTACGG, the binding signal (log2 normalized intensity) amounted to 0.671.

Consider CAACACCCAGGCTTATCTCACTCCAAAGGC, for which the binding signal (log2 normalized intensity) was -1.25.

Regarding CTCTCCCGCCTCTTGGCCTCCCCCTTCTGA, the binding signal (log2 normalized intensity) was 4.42.

Consider CCTCTGCACCCCACCAAGGACTGGACCACC, for which the binding signal (log2 normalized intensity) came out at 2.34.

In the case of AATCTACAAATGTTTCAACATGACAGATAA, the binding signal (log2 normalized intensity) is -0.659.

As to ATTCCACTGACTGCTTTATCAGTGTAGTTT, the binding signal (log2 normalized intensity) was found to be 1.43.

On to CTTGTAATTCAAGACTATAGACTGTGATAA, for which the binding signal (log2 normalized intensity) was -0.305.

Regarding TCTTTCTCAAGCCAGACTGGTTTTTCTTGG, the binding signal (log2 normalized intensity) is 1.53.

As to GGCTAGGCTGATAAGGAGGGTAACAATGCT, the binding signal (log2 normalized intensity) is -1.25.

For AACCCTAATCCACATGCTATTATTTTCCAT, the binding signal (log2 normalized intensity) was -0.922.

With AGAGAAGCACTGCAGTTTAAGTCTGAAGGC, the binding signal (log2 normalized intensity) is -1.19.

As for CTTTAAGTGTGGGGTGACTGACTTAACCCT, the binding signal (log2 normalized intensity) worked out at 1.77.

As for GCCAGGAAGCAATGGCCCTCAGCAAACCTT, the binding signal (log2 normalized intensity) is -1.24.

For the sequence GGACTTTCAGGAATGCACCCTTTTGACCAC, the binding signal (log2 normalized intensity) turned out to be 2.88.

Consider AGATGAGATGGTCAAAGGTTGATGGTATGT, for which the binding signal (log2 normalized intensity) was 3.25.

Consider CCAGGGAGTGCAGCTGCAGGTGTGGGGGCG, for which the binding signal (log2 normalized intensity) is -0.79.

Regarding TTGGAACCTGAAAGAGCAACTACTCTCTCT, the binding signal (log2 normalized intensity) is -1.04.

In the case of CTTCTCCGCGGCGGGCCCTCGACCTTTGCC, the binding signal (log2 normalized intensity) was 5.07.

For CCGGCACGGTTTCGTGGGGACCCAGGCTTG, the binding signal (log2 normalized intensity) was -1.17.

Take ATTGACATTTGGGGTCAGATAATTCTTTGC: the binding signal (log2 normalized intensity) turned out to be 1.68.

With AAGGAGCAGATGGCTAGTGACTCAGAGCAT, the binding signal (log2 normalized intensity) is -0.94.

Turning to AGTGCTTTTCAATCTTATTTTTACTATGTG, the binding signal (log2 normalized intensity) was found to be 2.26.

For CCCTTGCTTGACCCATTATGGCCACTGTGT, the binding signal (log2 normalized intensity) was determined as 0.863.

ACCAAGTGAACTGTGACCTGATGACAAAGG: the binding signal (log2 normalized intensity) amounted to 1.38.

Turning to TGACAACCAGGGCAGGGAAAGGGGGTTTGC, the binding signal (log2 normalized intensity) is -1.14.

With CCCACCCCCCTGCTCCAGGCCGGCTTGCGT, the binding signal (log2 normalized intensity) was 4.

For AACATTAGTATCACTGTGAAGACGTTAGGG, the binding signal (log2 normalized intensity) was 0.488.

As to AGTCTTTGCCCCACTGCAAGTTGACATAAC, the binding signal (log2 normalized intensity) worked out at 2.31.

As for AGGCAAAGGCCACAGCTCAGATCACAAAAG, the binding signal (log2 normalized intensity) is -1.11.

For CACTATCACCAGGATGGGCCATGACCTTTA, the binding signal (log2 normalized intensity) stood at 4.48.

For ATCTGACCCCTTCTTGACCTGCGTAGCCCA, the binding signal (log2 normalized intensity) was found to be 2.16.

CTCGGATCCTCTGGGCTGGCTTTCATTCCA: the binding signal (log2 normalized intensity) is -1.2.

Regarding TCCCTCTCACGGTAACAGCCGGAGAGGCAA, the binding signal (log2 normalized intensity) was -1.11.

TTCTCCCAGGCCATACAGATACCCAGGCAT: the binding signal (log2 normalized intensity) is -1.04.

On to GCTCCACCCAGTTCGTGCTTCTTGGCCTCT, for which the binding signal (log2 normalized intensity) is 1.63.

As for GGTGCGACGAACGGGTAAATCCGGTTTGGG, the binding signal (log2 normalized intensity) was -0.819.

For the sequence TTTTCGAGGAGTCAAAAGGTGTATGTGGAC, the binding signal (log2 normalized intensity) was found to be 1.74.

In the case of ATAGGGCTTGAAAAGAAGAAAAAACAGGTG, the binding signal (log2 normalized intensity) was -0.738.

Regarding TGAGTGCAAAGTCCCTAGAAGGGATCCAGC, the binding signal (log2 normalized intensity) was 1.23.

Regarding GGGCTCCTTTGATCTCCGTGTTTGGAATTG, the binding signal (log2 normalized intensity) stood at 2.45.

As to TACCTGGTTAAAAGGACAACCTTCGGCCGG, the binding signal (log2 normalized intensity) was 2.52.

On to CAGAACTAGCAAGTGCCAAGATGCTAAGGC, for which the binding signal (log2 normalized intensity) was -1.11.

With TATCCATTTATCTCAGGTGAGCAGAGGGAG, the binding signal (log2 normalized intensity) was 2.15.

GAAAGGGTCAAAGGTTAAGCCATTGGGCAA: the binding signal (log2 normalized intensity) turned out to be 5.95.

For TCTCCCTCTAGAGCAAAAGACAAGTTGGTT, the binding signal (log2 normalized intensity) turned out to be 0.293.

With GGTCTAAAAGTAGCTGTTGGAATTTGGTCA, the binding signal (log2 normalized intensity) was determined as 4.46.

On to GGAAGCGATGGGCTGGCCCTGAGCCAAGGG, for which the binding signal (log2 normalized intensity) is -1.16.

TTGTAAATATAGGATCATGTTGTCTGCAAA: the binding signal (log2 normalized intensity) is 1.12.

For TTTGCTCACTGTAACCTTTGCCCCCCAAGT, the binding signal (log2 normalized intensity) was 8.54.

As to ATTTAGGGTATTTCCTAAACCAACTATAGA, the binding signal (log2 normalized intensity) is -0.852.

Regarding TCAAACATCACATTCCCCAGGCAATCTTCC, the binding signal (log2 normalized intensity) amounted to 0.807.

On to TCATGCCTTAGCTCTAGACATCGACCTTTG, for which the binding signal (log2 normalized intensity) turned out to be 5.8.

On to TGTGGGGGCGGCAGGAGCCACAAGCCGGAG, for which the binding signal (log2 normalized intensity) is -1.03.

For the sequence GCAATCACGCCTCAAATGAGCTTTTGATGA, the binding signal (log2 normalized intensity) is -1.15.

As to CTGTAAATAAATGTCATTTAAGACGAGTGG, the binding signal (log2 normalized intensity) stood at 0.65.

As to GCTTTTCTCAAGTTCAGTCTTTATTGGTAC, the binding signal (log2 normalized intensity) is 1.76.

Turning to GCTAAGTCCAAAGGTAAAAACTGGCTCTTA, the binding signal (log2 normalized intensity) amounted to 2.65.
